The list shows a part of the results.
What was measured:
Assay in all cases: glycan array binding signal (z-score within array); higher = stronger binding
Details in all cases: glycan notation: IUPAC condensed, linker removed
[1] = biological target: Fuc(a1-2)[GalNAc(a1-3)]Gal(b1-3)GlcNAc(b1-6)GalNAc
How it was run: (§1)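 The Consortium for Functional Glycomics database supplied 3228 glycan arrays, of which those lacking an available protein sequence were dropped. The binding signal, a within-array Z-score, was averaged across arrays of the same protein sequence and across linkers. Negative scores can be read as non-binding.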

[2] = biological target: Fuc(a1-2)[GalNAc(a1-3)]Gal(b1-4)Glc
How it was run: as §1

[3] = biological target: Fuc(a1-2)[GalNAc(a1-3)]Gal(b1-4)GlcNAc
How it was run: as §1

[4] = biological target: Fuc(a1-2)[GalNAc(a1-3)]Gal(b1-4)GlcNAc(b1-2)Man
How it was run: as §1

[5] = biological target: Fuc(a1-2)[GalNAc(a1-3)]Gal(b1-4)GlcNAc(b1-2)Man(a1-3)[Fuc(a1-2)[GalNAc(a1-3)]Gal(b1-4)GlcNAc(b1-2)Man(a1-6)]Man(b1-4)GlcNAc(b1-4)GlcNAc
How it was run: as §1

[6] = biological target: Fuc(a1-2)[GalNAc(a1-3)]Gal(b1-4)GlcNAc(b1-2)Man(a1-3)[Fuc(a1-2)[GalNAc(a1-3)]Gal(b1-4)GlcNAc(b1-2)Man(a1-6)]Man(b1-4)GlcNAc(b1-4)[Fuc(a1-6)]GlcNAc
How it was run: as §1

[7] = biological target: Fuc(a1-2)[GalNAc(a1-3)]Gal(b1-4)GlcNAc(b1-3)Gal(b1-4)GlcNAc
How it was run: as §1

[8] = biological target: Fuc(a1-2)[GalNAc(a1-3)]Gal(b1-4)GlcNAc(b1-3)Gal(b1-4)GlcNAc(b1-3)Gal(b1-4)GlcNAc
How it was run: as §1

[9] = biological target: Fuc(a1-2)[GalNAc(a1-3)]Gal(b1-4)GlcNAc(b1-3)GalNAc
How it was run: as §1

[10] = biological target: Fuc(a1-2)[GalNAc(a1-3)]Gal(b1-4)GlcNAc(b1-3)[Fuc(a1-2)[GalNAc(a1-3)]Gal(b1-4)GlcNAc(b1-6)]GalNAc
How it was run: as §1

[11] = biological target: Fuc(a1-2)[GalNAc(a1-3)]Gal(b1-4)GlcNAc(b1-6)GalNAc
How it was run: as §1

[12] = biological target: Fuc(a1-2)[GalNAc(a1-3)]Gal(b1-4)[Fuc(a1-3)]GlcNAc
How it was run: as §1

[13] = biological target: Fuc(a1-2)[GalNAc(a1-3)]Gal(b1-4)[Fuc(a1-3)]GlcNAc(b1-3)GalNAc
How it was run: as §1

[14] = biological target: Fuc(a1-2)[GalNAc(a1-4)]Gal(b1-4)GlcNAc
How it was run: as §1

[15] = biological target: Fuc(a1-2)[GalNAc(b1-3)]Gal
How it was run: as §1

Fuc(a1-3)GlcNAc = biological target: Fuc(a1-3)GlcNAc
How it was run: as §1

[16] = biological target: Fuc(a1-3)[Gal(b1-4)]Glc6S
How it was run: as §1

[17] = biological target: Fuc(a1-3)[Gal(b1-4)]GlcNAc
How it was run: as §1

[18] = biological target: Fuc(a1-3)[Gal(b1-4)]GlcNAc(b1-2)Man
How it was run: as §1

[19] = biological target: Fuc(a1-3)[Gal(b1-4)]GlcNAc(b1-2)Man(a1-3)[Fuc(a1-3)[Gal(b1-4)]GlcNAc(b1-2)Man(a1-6)]Man(b1-4)GlcNAc(b1-4)GlcNAc
How it was run: as §1

[20] = biological target: Fuc(a1-3)[Gal(b1-4)]GlcNAc(b1-2)Man(a1-3)[Fuc(a1-3)[Gal(b1-4)]GlcNAc(b1-2)Man(a1-6)]Man(b1-4)GlcNAc(b1-4)[Fuc(a1-6)]GlcNAc
How it was run: as §1

[21] = biological target: Fuc(a1-3)[Gal(b1-4)]GlcNAc(b1-3)Gal(b1-3)[Fuc(a1-4)]GlcNAc
How it was run: as §1

[22] = biological target: Fuc(a1-3)[Gal(b1-4)]GlcNAc(b1-3)Gal(b1-4)[Fuc(a1-3)]GlcNAc
How it was run: as §1

[23] = biological target: Fuc(a1-3)[Gal(b1-4)]GlcNAc(b1-3)Gal(b1-4)[Fuc(a1-3)]GlcNAc(b1-3)Gal(b1-4)[Fuc(a1-3)]GlcNAc
How it was run: as §1

[24] = biological target: Fuc(a1-3)[Gal(b1-4)]GlcNAc(b1-3)GalNAc
How it was run: as §1

[25] = biological target: Fuc(a1-3)[Gal(b1-4)]GlcNAc(b1-6)GalNAc
How it was run: as §1

[26] = biological target: Fuc(a1-3)[Gal(b1-4)]GlcNAc(b1-6)[Gal(b1-3)GlcNAc(b1-3)]Gal(b1-4)Glc
How it was run: as §1

[27] = biological target: Fuc(a1-3)[Gal(b1-4)]GlcNAc6S
How it was run: as §1

[28] = biological target: Fuc(a1-3)[Gal3S(b1-4)]Glc
How it was run: as §1

[29] = biological target: Fuc(a1-3)[Gal3S(b1-4)]GlcNAc
How it was run: as §1

[30] = biological target: Fuc(a1-3)[Gal3S(b1-4)]GlcNAc6S
How it was run: as §1

[31] = biological target: Fuc(a1-3)[GalNAc(b1-4)]GlcNAc
How it was run: as §1

[32] = biological target: Fuc(a1-3)[GalNAc(b1-4)]GlcNAc6S
How it was run: as §1

Fuc(a1-4)GlcNAc = biological target: Fuc(a1-4)GlcNAc
How it was run: as §1

Fuc(b1-3)GlcNAc = biological target: Fuc(b1-3)GlcNAc
How it was run: as §1

Gal(a1-2)Gal = biological target: Gal(a1-2)Gal
How it was run: as §1

Gal(a1-3)Gal = biological target: Gal(a1-3)Gal
How it was run: as §1

B1: PX14343B-bfa-546-20-546 (Bacteroides fragilis) (protein)
chain: CDLERYPLTDLSEETFWNSESNAELALTSLYRGSLTDGVEYNPSDWWSYHGMIMMEHLSDNAFDRRGENNPFFKISSGNLTADNAFIKRYWETSYKRIGYCNRFLVGIQNSSESEKKTRMIAEARFLRATQYFYLASYFKNVPLVENVLTGEEANNVTKTSQADILKWCVTEFTAAAADLPRFSAIPAGEAGRACKQAALAFLGRTCMLQKDWKSGAKAFHDIMELGDNAINANYQELFYPSTGTSNKENIFYIQYLENYLGTGLPQHALSAKDGGWSLVNPAADLYESYEFKDGTPFSYDDPRYDPSNLGKDRDPRLDYTIYYNGAIFMGTEYKMSPDYSAAKKEKLDYTSEASRTGFMMRKYFEESTPINDVQSANGLTPVIRYAEVLLGYLECLVEDNQTITQGILDETINAVRGRASVNMPPVTEVTPAKLREIVRHERRIELAMEGIRYWDIMRWGIAHEVLSQKIWGAPYPGSTQYATTTKEVDPTGNYRWYVGKRAFRNPTDYTWPIPQSEQNINPNLRD
[1]
  glycan array binding signal (z-score): -0.126
[2]
  glycan array binding signal (z-score): -0.123
[3]
  glycan array binding signal (z-score): -0.127
[4]
  glycan array binding signal (z-score): -0.124
[5]
  glycan array binding signal (z-score): -0.117
[6]
  glycan array binding signal (z-score): -0.124
[7]
  glycan array binding signal (z-score): -0.126
[8]
  glycan array binding signal (z-score): -0.121
[9]
  glycan array binding signal (z-score): -0.12
[10]
  glycan array binding signal (z-score): -0.117
[11]
  glycan array binding signal (z-score): -0.126
[12]
  glycan array binding signal (z-score): -0.098
[13]
  glycan array binding signal (z-score): -0.116
[14]
  glycan array binding signal (z-score): -0.115
[15]
  glycan array binding signal (z-score): -0.129
Fuc(a1-3)GlcNAc
  glycan array binding signal (z-score): -0.113
[16]
  glycan array binding signal (z-score): -0.118
[17]
  glycan array binding signal (z-score): -0.127
[18]
  glycan array binding signal (z-score): -0.113
[19]
  glycan array binding signal (z-score): -0.132
[20]
  glycan array binding signal (z-score): -0.11
[21]
  glycan array binding signal (z-score): -0.12
[22]
  glycan array binding signal (z-score): -0.111
[23]
  glycan array binding signal (z-score): -0.118
[24]
  glycan array binding signal (z-score): -0.114
[25]
  glycan array binding signal (z-score): -0.12
[26]
  glycan array binding signal (z-score): -0.112
[27]
  glycan array binding signal (z-score): -0.129
[28]
  glycan array binding signal (z-score): -0.133
[29]
  glycan array binding signal (z-score): -0.129
[30]
  glycan array binding signal (z-score): -0.111
[31]
  glycan array binding signal (z-score): -0.113
[32]
  glycan array binding signal (z-score): -0.123
Fuc(a1-4)GlcNAc
  glycan array binding signal (z-score): -0.133
Fuc(b1-3)GlcNAc
  glycan array binding signal (z-score): -0.115
Gal(a1-2)Gal
  glycan array binding signal (z-score): -0.116
Gal(a1-3)Gal
  glycan array binding signal (z-score): -0.125

From the supplement of paper PMC8728848
